{
  "source": "the RNAGym collection of RNA variant scans (doi:10.7554/elife.90254)",
  "parents": {"B1": {"name": "LINE1-full (parent)", "chain": "UACGUAGGUGGUUUUCCCCUGAUAGUGCUAAGGGGGCCUGGAAGUUUGGACUGGGCAGAGCUCAACACAGCGUGGCAAAGUGGCUGUGGCUAGACUGCCUCUCUGGAUUCCUCGUCACUCAGCAGGGCAUCUCUGAGAGAAAUGCC"}},
  "note": "The source gives no read counts; variants with many changes may rest on few reads.",
  "data": [
    {"variants_of": "B1", "experiment": "self-cleavage, relative activity (ratio to wild type); higher = more cleavage; in vitro, sequencing; the parent is a self-cleaving ribozyme", "values": [
      {"variant": "UACGUAGGUGGGUUUCCCCCGAUAGUGCUAAGGGGGCCUGGAAGCUUGGACUGGGCAGAGCUCAACACAGCGAGGCAAAGUGGCUGUGGCUGGACAGCCUCUCUGGAUUCCUCGUCACUCAGCAGGGCAUCUCUGAGAGAGAUGCC", "note": "[U12G U20C U45C U73A A92G U96A A141G]", "self-cleavage": 0},
      {"variant": "UACGUAGGUGGUCUUCCCCUGAUAGUGCUAAGGGGGCCUGGAAGUUUGGACUGGGCAGAGCCCAACACAGCGUGGCUAAGUGGCUGUGGCUAGACUGCCUCUCUGGAUUCCUCGUCACUAAGCAGGGCAUCUCUGAGAGAAAUGCC", "note": "[U13C U62C A77U C120A]", "self-cleavage": 0.05},
      {"variant": "UACGUAGGCGGUUUUCACCUGAUAGUGCUAUGGGGGCCUGGAAGUUUGGACUGGGCAGAGCUCAACACAGCGUGGCAAAGUGGCUGUGGCUAGACUGCCUCUCUGGAUUCCUCGUCACUCAGCAGGGCAUCUCUGAGAGAAAUGCC", "note": "[U9C C17A A31U]", "self-cleavage": 0.95},
      {"variant": "UACGUAAGUGGUUUCCCCCUGAUAGUGCUAAGGGGGCCUGGAAGUUUGGACUGGGCAGAGCUCAACACAGCGUGGCAAGGUGGCUAUGGCUAGACUGCCUCUCUGGAUUCCUCGUCACUCAGCAGGGCAUCUCUGAGAGAAAUGCC", "note": "[G7A U15C A79G G86A]", "self-cleavage": 0.06},
      {"variant": "UACGUAGGUGGUUUUCCCCUGAUAGUGCUAAGGGGGCCUGGAAGUUUGGACUGGGCAGAGCUCAACACAGCGUGGCAAAGUGGCUGUGGCUAGACUGCCUCUCUGGAUACCUCGUCACUCAGCGGGGCAUCUCUGAGAGAGAUGCC", "note": "[U109A A124G A141G]", "self-cleavage": 1.43},
      {"variant": "UACGUAGGUGGUUCUCCCCUGAUAGUGCUAAGGGGGCCUGGAAGUUUGGACUGGGCAGAGCUCAACACUGCGUGGCAAAGUGGCGGUGGCUAGACUGCCUCUCCGGAUUCCUCGUCACUCAGCAGGGCAUCUCUGAGAGAAAUGCC", "note": "[U14C A69U U85G U104C]", "self-cleavage": 0.69},
      {"variant": "UACGUAGGUGGUUUUCCCCUGAUAGUGCUAGGGGGGCCUGGAAGUUUGGACUGGGCAGAGCACAACACAGCGUGGCAAAGUGGCUGUGGCUAGACUGCCUCUCUGGACUCCUCGUCACUCAGCAGGGCAUCUCUGAGAGAAAUGCC", "note": "[A31G U62A U108C]", "self-cleavage": 0.03},
      {"variant": "UACGUAGGUGGUUUUCCCCUGAUAGUGCUAAGGGGGCCUGGAAGUUUGGACUGGGCAGAGCUCAACACAGCUUGGCAAAGUGGCUGUGGCUAGACUGCCUCUCUGGAUUCCUCGUCACUCAGCAGGGCGUCUCUGAGAGAAGUGCC", "note": "[G72U A129G A142G]", "self-cleavage": 1.44},
      {"variant": "UACGUAGGUGAUUUUCCCCUGAUAGUGCUGAGGGGGCCUGGAGGUUAGGACUGGGCAGAGCUCAACACAGCGUGGCAAAGUGGCCGUGGCUAGACUGCCUCUCUGGAUUCCUCGUCACUCAGCAGGGCAUCUCCGAGAGAAAUGCC", "note": "[G11A A30G A43G U47A U85C U134C]", "self-cleavage": 0},
      {"variant": "UACGUAGGUGGUUUUCCCCUGAUAGUGCUAAGGGGGCCUGGAAGUUUGGACUGGGCAGAGCCCAACACAGCGUGGCAAAGUGGCUGUGGCCAGACUGCCUCUCUGGAUUCCUCGUCUCUCAGCAGGGCAUCUCUGAGAGAAAUGCC", "note": "[U62C U91C A117U]", "self-cleavage": 0},
      {"variant": "UACGUAGGUGGUUUUCCCCUAGUAGUGCUAAGGGGGCCUGGAAGUUUGGACUGGGCAGAGCUCAACACAGCGUGGCAAAGUGGCUGUGGCUAGACUGCCUCUCUGGAUUCCUCGUCACUCAGCUGGGCAUCUCUGAGAGAAAUGCC", "note": "[G21A A22G A124U]", "self-cleavage": 1.19},
      {"variant": "UACGUAGGUGGUUUUCCCCUGAUAGUGCUAAGGGGGCCUGGGAGUUCGGACUGGGCAGAGCUCAACAUAGCGUGGCAAAGUGGCUGUGGCUAGACUGCCUCUCUGGAUUCCUCGUCACUCAGCAGGGCAUCUCUGAGAGAAAUGCC", "note": "[A42G U47C C68U]", "self-cleavage": 0.14},
      {"variant": "UACGUAGGUGGUUUUCCCCUGAUAGUGCUAAGGGGGCCUGGAAGUUUGGACUGGGCAGAGCUCAACACAGCGUGGCAGAGAGGCUGUGGCUAGACUGCCUCUCAGGAUUCCUCGUCACUCAGCAGGGCAUCUCUGAGAGAAAUGCC", "note": "[A78G U81A U104A]", "self-cleavage": 0.33},
      {"variant": "UACGUAGGUGGUUUUCCCCUGAUAGUGCUAAGGGGGCCUGGAAGUUUGGACUGGGCAGAGCUCAACACAGCGUGGCAAAGUGGCUGUGGCUAGACUGCCUCUCCGGAUUCCUCGUCACUCAGCGGGGCAUCUCUGAGAGAAGUGCC", "note": "[U104C A124G A142G]", "self-cleavage": 0.88},
      {"variant": "UACGUAGGUGGUUUUCCCCUGAUAGUGCUUAGGGGGCCUGGAAGUUUGGACUGGGCAGAGCUCGACACAGCGUGGCAAAGUGGCUGUGGCUAGACUGCCUCUCUGGAUUCCUCGUCACUCAGCAGGGCAUCUCUGAGAGGAAUGCC", "note": "[A30U A64G A140G]", "self-cleavage": 0.44},
      {"variant": "UACGUAGGUGGUUUUCCCCUGAUAGUGCUAAGGGGGCCUGGAAGUUUGGGCUGGGCAAAGCUCAACACAGCGUGGCAAAGUGGCUGUGGCUAGACUGCCUCUCUGGAUUCCUCGUCACUCAGCAGGGCAUCUCCGAGAGAAAUGCC", "note": "[A50G G58A U134C]", "self-cleavage": 0.08},
      {"variant": "UACGUAGGUGGUUUUCCCCUGAUAGUGCUAAGGGGGCCUGGGAGUAUGGACUGGGCAGAGCUCAACACAGCGUGGCAAAGUGGCAGUGGCUAGACUGCCUCUCUGGAUUCCUCGUCACUCAGCAGGGCAUCUCUGAGAGAAAUGCC", "note": "[A42G U46A U85A]", "self-cleavage": 0.12},
      {"variant": "CACGUAGGUGGUUUUCCCCUGAUAGUGCUAAGGGGGCCUGGAAGUUUGGACUGGGAAGAGCUCAACACAGCGCGGCAAAGUGGCUGUGGCUAGACUGCCUCUCUGGAUUCCUCGUCACUCAGCAGGGCAUCUCUGAGAGAAAUGCC", "note": "[U1C C56A U73C]", "self-cleavage": 0.07},
      {"variant": "UACGUAGGUGGUUUUCCCCUGAUAGUGCUAAGUGGGCCUGGAAGAUUGGACUGGGCAGAGCUCUACACAGCGUGGCAAAGUGGCUGUGGCUAGACUGCCUCUCUGGAUUCCUCGUCACUCAGCAGGGCAUCUCUGAGAGAAAUGCC", "note": "[G33U U45A A64U]", "self-cleavage": 0.43},
      {"variant": "UACGUUGGUGGUUUUCCCCUGAUAGUGCUAAGGGGGCCUGGAAGUAUGGACUGGGCAGAGCUCAACACGGCGUGGCAAAGUGGCUGUGGCUAGACUGCCACUCAGGAUUCCUCGUCACUCAGCAGGGCAUCUCUGAGAGAAAUGCC", "note": "[A6U U46A A69G U100A U104A]", "self-cleavage": 0.34}
    ]}
  ]
}
